# Some of the results follow.
# B1: Banana lectin (Musa acuminata) (protein)
# chain: MNGAIKVGAWGGNGGSAFDMGPAYRIISVKIFSGDVVDGVDVTFTYYGKTETRHYGGSGGTPHEIVLQEGEYLVGMAGEVANYHGAVVLGKLGFSTNKKAYGPFGNTGGTPFSLPIAAGKISGFFGRGGKFLDAIGVYLEPLEHHHHHH
# Columns and labels:
# Experiment in all cases: glycan array binding signal (z-score within array); higher = stronger binding
# Conditions in all cases: glycan notation: IUPAC condensed, linker removed
# [1] = target: Fuc(a1-2)[GalNAc(b1-3)]Gal
# Outline: (§1)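 The binding signal is a Z-score computed within each array. Data were drawn from 3228 arrays in the Consortium for Functional Glycomics database, restricted to those with a known protein sequence. Scores were averaged over arrays of the same protein sequence at different concentrations or buffers, and over linkers, and negative values can be taken as non-binding.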
# Fuc(a1-3)GlcNAc = target: Fuc(a1-3)GlcNAc
# Outline: as §1
# [2] = target: Fuc(a1-3)[Gal(b1-4)]Glc6S
# Outline: as §1
# [3] = target: Fuc(a1-3)[Gal(b1-4)]GlcNAc
# Outline: as §1
# [4] = target: Fuc(a1-3)[Gal(b1-4)]GlcNAc(b1-2)Man
# Outline: as §1
# [5] = target: Fuc(a1-3)[Gal(b1-4)]GlcNAc(b1-2)Man(a1-3)[Fuc(a1-3)[Gal(b1-4)]GlcNAc(b1-2)Man(a1-6)]Man(b1-4)GlcNAc(b1-4)GlcNAc
# Outline: as §1
# [6] = target: Fuc(a1-3)[Gal(b1-4)]GlcNAc(b1-2)Man(a1-3)[Fuc(a1-3)[Gal(b1-4)]GlcNAc(b1-2)Man(a1-6)]Man(b1-4)GlcNAc(b1-4)[Fuc(a1-6)]GlcNAc
# Outline: as §1
# [7] = target: Fuc(a1-3)[Gal(b1-4)]GlcNAc(b1-3)Gal(b1-3)[Fuc(a1-4)]GlcNAc
# Outline: as §1
# [8] = target: Fuc(a1-3)[Gal(b1-4)]GlcNAc(b1-3)Gal(b1-4)[Fuc(a1-3)]GlcNAc
# Outline: as §1
# [9] = target: Fuc(a1-3)[Gal(b1-4)]GlcNAc(b1-3)Gal(b1-4)[Fuc(a1-3)]GlcNAc(b1-3)Gal(b1-4)[Fuc(a1-3)]GlcNAc
# Outline: as §1
# [10] = target: Fuc(a1-3)[Gal(b1-4)]GlcNAc(b1-3)GalNAc
# Outline: as §1
# [11] = target: Fuc(a1-3)[Gal(b1-4)]GlcNAc(b1-6)GalNAc
# Outline: as §1
# [12] = target: Fuc(a1-3)[Gal(b1-4)]GlcNAc(b1-6)[Gal(b1-3)GlcNAc(b1-3)]Gal(b1-4)Glc
# Outline: as §1
# [13] = target: Fuc(a1-3)[Gal(b1-4)]GlcNAc6S
# Outline: as §1
# [14] = target: Fuc(a1-3)[Gal3S(b1-4)]Glc
# Outline: as §1
# [15] = target: Fuc(a1-3)[Gal3S(b1-4)]GlcNAc
# Outline: as §1
# [16] = target: Fuc(a1-3)[Gal3S(b1-4)]GlcNAc6S
# Outline: as §1
# [17] = target: Fuc(a1-3)[GalNAc(b1-4)]GlcNAc
# Outline: as §1
# [18] = target: Fuc(a1-3)[GalNAc(b1-4)]GlcNAc6S
# Outline: as §1
# Fuc(a1-4)GlcNAc = target: Fuc(a1-4)GlcNAc
# Outline: as §1
# Fuc(b1-3)GlcNAc = target: Fuc(b1-3)GlcNAc
# Outline: as §1
# Gal(a1-2)Gal = target: Gal(a1-2)Gal
# Outline: as §1
# Gal(a1-3)Gal = target: Gal(a1-3)Gal
# Outline: as §1
# Gal(a1-3)Gal(b1-3)GlcNAc = target: Gal(a1-3)Gal(b1-3)GlcNAc
# Outline: as §1
# [19] = target: Gal(a1-3)Gal(b1-3)GlcNAc(b1-2)Man
# Outline: as §1
# [20] = target: Gal(a1-3)Gal(b1-3)GlcNAc(b1-2)Man(a1-3)[Gal(a1-3)Gal(b1-3)GlcNAc(b1-2)Man(a1-6)]Man(b1-4)GlcNAc(b1-4)GlcNAc
# Outline: as §1
# [21] = target: Gal(a1-3)Gal(b1-3)GlcNAc(b1-3)GalNAc
# Outline: as §1
# [22] = target: Gal(a1-3)Gal(b1-3)GlcNAc(b1-6)GalNAc
# Outline: as §1
# [23] = target: Gal(a1-3)Gal(b1-3)[Fuc(a1-4)]GlcNAc(b1-2)Man(a1-3)[Gal(a1-3)Gal(b1-3)[Fuc(a1-4)]GlcNAc(b1-2)Man(a1-6)]Man(b1-4)GlcNAc(b1-4)GlcNAc
# Outline: as §1
# Gal(a1-3)Gal(b1-4)Glc = target: Gal(a1-3)Gal(b1-4)Glc
# Outline: as §1
# Gal(a1-3)Gal(b1-4)GlcNAc = target: Gal(a1-3)Gal(b1-4)GlcNAc
# Outline: as §1
# [24] = target: Gal(a1-3)Gal(b1-4)GlcNAc(b1-2)Man
# Outline: as §1
# [25] = target: Gal(a1-3)Gal(b1-4)GlcNAc(b1-2)Man(a1-3)[Gal(a1-3)Gal(b1-4)GlcNAc(b1-2)Man(a1-6)]Man(b1-4)GlcNAc(b1-4)GlcNAc
# Outline: as §1
# [26] = target: Gal(a1-3)Gal(b1-4)GlcNAc(b1-3)GalNAc
# Outline: as §1
# [27] = target: Gal(a1-3)Gal(b1-4)GlcNAc(b1-6)GalNAc
# Outline: as §1
# [28] = target: Gal(a1-3)Gal(b1-4)[Fuc(a1-3)]GlcNAc
# Outline: as §1
# [29] = target: Gal(a1-3)Gal(b1-4)[Fuc(a1-3)]GlcNAc(b1-2)Man(a1-3)[Gal(a1-3)Gal(b1-4)[Fuc(a1-3)]GlcNAc(b1-2)Man(a1-6)]Man(b1-4)GlcNAc(b1-4)GlcNAc
# Outline: as §1
# Gal(a1-3)GalNAc = target: Gal(a1-3)GalNAc
# Outline: as §1
# [30] = target: Gal(a1-3)[Gal(a1-4)]Gal(b1-4)GlcNAc
# Outline: as §1
# [31] = target: Gal(a1-4)Gal(b1-3)GlcNAc(b1-2)Man(a1-3)[Gal(a1-4)Gal(b1-3)GlcNAc(b1-2)Man(a1-6)]Man(b1-4)GlcNAc(b1-4)GlcNAc
# Outline: as §1
# Gal(a1-4)Gal(b1-4)Glc = target: Gal(a1-4)Gal(b1-4)Glc
# Outline: as §1
# Gal(a1-4)Gal(b1-4)GlcNAc = target: Gal(a1-4)Gal(b1-4)GlcNAc
# Outline: as §1
# [32] = target: Gal(a1-4)Gal(b1-4)GlcNAc(b1-2)Man(a1-3)[Gal(a1-4)Gal(b1-4)GlcNAc(b1-2)Man(a1-6)]Man(b1-4)GlcNAc(b1-4)GlcNAc
# Outline: as §1
# [33] = target: Gal(a1-4)Gal(b1-4)GlcNAc(b1-3)Gal(b1-4)Glc
# Outline: as §1
# Gal(a1-4)GlcNAc = target: Gal(a1-4)GlcNAc
# Outline: as §1
binder,measurement,setting,value
B1,glycan array binding signal (z-score),[1],-0.203
same,glycan array binding signal (z-score),Fuc(a1-3)GlcNAc,-0.214
same,glycan array binding signal (z-score),[2],-0.211
same,glycan array binding signal (z-score),[3],-0.202
same,glycan array binding signal (z-score),[4],-0.22
same,glycan array binding signal (z-score),[5],-0.201
same,glycan array binding signal (z-score),[6],-0.084
same,glycan array binding signal (z-score),[7],-0.185
same,glycan array binding signal (z-score),[8],-0.123
same,glycan array binding signal (z-score),[9],-0.237
same,glycan array binding signal (z-score),[10],-0.268
same,glycan array binding signal (z-score),[11],-0.216
same,glycan array binding signal (z-score),[12],-0.214
same,glycan array binding signal (z-score),[13],-0.204
same,glycan array binding signal (z-score),[14],-0.2
same,glycan array binding signal (z-score),[15],-0.198
same,glycan array binding signal (z-score),[16],-0.212
same,glycan array binding signal (z-score),[17],-0.132
same,glycan array binding signal (z-score),[18],-0.213
same,glycan array binding signal (z-score),Fuc(a1-4)GlcNAc,-0.17
same,glycan array binding signal (z-score),Fuc(b1-3)GlcNAc,-0.198
same,glycan array binding signal (z-score),Gal(a1-2)Gal,-0.228
same,glycan array binding signal (z-score),Gal(a1-3)Gal,-0.232
same,glycan array binding signal (z-score),Gal(a1-3)Gal(b1-3)GlcNAc,-0.227
same,glycan array binding signal (z-score),[19],-0.189
same,glycan array binding signal (z-score),[20],-0.19
same,glycan array binding signal (z-score),[21],-0.173
same,glycan array binding signal (z-score),[22],-0.189
same,glycan array binding signal (z-score),[23],0.245
same,glycan array binding signal (z-score),Gal(a1-3)Gal(b1-4)Glc,-0.198
same,glycan array binding signal (z-score),Gal(a1-3)Gal(b1-4)GlcNAc,-0.106
same,glycan array binding signal (z-score),[24],-0.191
same,glycan array binding signal (z-score),[25],0.067
same,glycan array binding signal (z-score),[26],-0.214
same,glycan array binding signal (z-score),[27],-0.196
same,glycan array binding signal (z-score),[28],-0.222
same,glycan array binding signal (z-score),[29],-0.175
same,glycan array binding signal (z-score),Gal(a1-3)GalNAc,-0.2
same,glycan array binding signal (z-score),[30],-0.211
same,glycan array binding signal (z-score),[31],0.413
same,glycan array binding signal (z-score),Gal(a1-4)Gal(b1-4)Glc,-0.195
same,glycan array binding signal (z-score),Gal(a1-4)Gal(b1-4)GlcNAc,-0.206
same,glycan array binding signal (z-score),[32],-0.174
same,glycan array binding signal (z-score),[33],-0.223
same,glycan array binding signal (z-score),Gal(a1-4)GlcNAc,-0.208

# Source: the supplement of paper PMC8728848
